{
  "source": "PubChem BioAssay AID1347073",
  "about": "(National Center for Advancing Translational Sciences (NCATS), 2019)",
  "note": "In all, about 45,000 compounds went through this assay and about 200 (0.44%) were called active. Not shown: some 7% with an inconclusive outcome. The call rests on the fitted dose curve; in most records, active means well fitted activation curve with a large enough effect; inconclusive means small, poorly fitted or top-dose-only effect; inactive means no such curve, though single readings can be large or run the other way. The list shows a part of the results.",
  "data": [
    {"assay": "qHTS of TDP-43 Inhibitors: NCGC Sytravon Library Screen; further: 0% is about no effect; nearly all actives have a fitted effect of over 55% in size", "details": "yeast TDP-43 toxicity rescue, BacTiter-Glo growth, 24 h; series mostly up to 46.1 µM; growth rescue (activation): at the top concentration", "procedure,_shortened": "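TDP-43-expressing yeast, pregrown in raffinose, seeded at OD600 0.02 in galactose medium with compound for 24 hr at 30 deg C. Growth read by BacTiter-Glo luminescence, so rescue of toxicity appears as activation.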", "values": [
      {"smiles": "COC(=O)C1=C(C)NC(C)=C(C(=O)OC)C1C(=O)OCC(=O)N1c2ccccc2CC1C", "note": "(configuration not stated)", "growth rescue (activation)": "inactive: -5.68%"},
      {"smiles": "CCN(CC(=O)NCc1cccs1)C(=O)c1ccc(C)o1", "growth rescue (activation)": "inactive: -3.22%"},
      {"smiles": "CCC(=O)N1CCC1(C)C(=O)Nc1ncc(C)s1", "note": "(configuration not stated)", "growth rescue (activation)": "inactive: -4.28%"},
      {"smiles": "CCCCNC(=O)c1ccc(/C=C2\\Oc3ccccc3N(C)C2=O)cc1", "growth rescue (activation)": "inactive: 0.907%"},
      {"smiles": "CCc1nc2c(OCCc3cccc(OC)c3)cccn2c1N(C)C(=O)c1ccc(OC)cc1", "growth rescue (activation)": "inactive: -5.99%"},
      {"smiles": "O=c1[nH]c2ccccc2cc1CN(CC1CCCO1)S(=O)(=O)c1ccc(Cl)cc1", "note": "(configuration not stated)", "growth rescue (activation)": "inactive: 4.52%"},
      {"smiles": "CC1=C(C(=O)OCc2ccccc2)C(c2cccs2)N2C(=O)CCSC2=N1", "note": "(configuration not stated)", "growth rescue (activation)": "inactive: 2.83%"},
      {"smiles": "CC(=O)c1ccc(OCC(C)C)c(Cc2c(O)nc(N)[nH]c2=O)c1", "growth rescue (activation)": "inactive: 4.51%"},
      {"smiles": "CCOc1ccc2nc(SCC(=O)N3c4ccccc4Sc4ccccc43)c(C#N)cc2c1", "growth rescue (activation)": "inactive: -4.24%"},
      {"smiles": "O=C(CSc1ncnc2c1oc1ccccc12)c1cccs1", "growth rescue (activation)": "inactive: 17.6%"},
      {"smiles": "CCc1cc2ccccc2nc1SCC(=O)NC1CCCC1", "growth rescue (activation)": "inactive: 8.89%"},
      {"smiles": "Cc1cc(C)n2nc(SCc3ccccc3F)nc2n1", "growth rescue (activation)": "inactive: 28.8%"},
      {"smiles": "CC(C)(C)C1CCC(OC(=O)C[N+]2(C)CCCCC2)CC1", "note": "(configuration not stated)", "growth rescue (activation)": "inactive: 6.61%"},
      {"smiles": "COc1ccc(Cl)cc1NC(=O)CCN1CCOCC1", "growth rescue (activation)": "inactive: 5.51%"},
      {"smiles": "CCc1ccccc1NC(=O)N1CCC2(CC1)Oc1ccccc1C(=O)N2Cc1ccccc1F", "growth rescue (activation)": "inactive: 2.3%"},
      {"smiles": "COc1cc(-c2nnc(CSc3nnc(Nc4ccc(Oc5ccccc5)cc4)s3)o2)cc(OC)c1OC", "growth rescue (activation)": "inactive: 13.7%"},
      {"smiles": "CCCCN(CC)CCNC(=O)CCNC(=O)Cn1ccc2ccccc2c1=O", "growth rescue (activation)": "inactive: 8.03%"},
      {"smiles": "CCN(c1ccccc1)S(=O)(=O)c1ccc(Cl)c(NC(=O)CNC(C)c2ccccc2)c1", "note": "(configuration not stated)", "growth rescue (activation)": "inactive: 12.1%"},
      {"smiles": "COc1cc(/C=C/C(=O)N2CCN(CC(O)COc3ccccc3)CC2)cc(OC)c1OC", "note": "(configuration not stated)", "growth rescue (activation)": "inactive: 10.6%"},
      {"smiles": "COc1cc(CCC(=O)OCC(=O)Nc2cccc(S(N)(=O)=O)c2)cc(OC)c1OC", "growth rescue (activation)": "inactive: 9.03%"},
      {"smiles": "O=C(COC(=O)Cn1cnc2ccccc21)NCCCc1ccccc1", "growth rescue (activation)": "inactive: 8.49%"},
      {"smiles": "COc1ccc(NC(=O)CCNC(=O)Cn2cnc3sc4c(c3c2=O)CCCC4)cc1OC", "growth rescue (activation)": "inactive: 10.7%"},
      {"smiles": "Cc1cc(CN(C)C(=O)CC2C(=O)NCCN2Cc2c(F)cccc2Cl)n[nH]1", "note": "(configuration not stated)", "growth rescue (activation)": "inactive: -14.8%"},
      {"smiles": "Cn1c(CO)cnc1SCC(=O)c1ccc(Cl)cc1", "growth rescue (activation)": "inactive: 0.442%"},
      {"smiles": "Cc1ccc(C)c(NC(=S)N(C)CCc2ccccn2)c1", "growth rescue (activation)": "inactive: 9.03%"},
      {"smiles": "Cc1c(C(=O)NCCNc2ncc(C(F)(F)F)cc2Cl)cccc1[N+](=O)[O-]", "growth rescue (activation)": "inactive: 14.7%"},
      {"smiles": "Cc1cc(O)ccc1NC(=O)CCN1C(=O)c2ccc([N+](=O)[O-])cc2C1=O", "growth rescue (activation)": "inactive: 4.77%"},
      {"smiles": "CCOc1ccc(OCC)c(NC(=O)CSCCc2ccccn2)c1", "growth rescue (activation)": "inactive: 6.19%"},
      {"smiles": "Cc1cc(C)c2[nH]c(=O)c(CN(Cc3cccs3)C(=S)NCC3CCCO3)cc2c1", "note": "(configuration not stated)", "growth rescue (activation)": "inactive: 2.9%"},
      {"smiles": "CCCNC(=O)C1(C)CCCN(Cc2noc(-c3c(C)noc3C)n2)C1", "note": "(configuration not stated)", "growth rescue (activation)": "inactive: 4.13%"},
      {"smiles": "O=C(CN(Cc1ccccc1)C(=O)CCC(=O)Nc1ccccn1)NCCc1ccccc1", "growth rescue (activation)": "inactive: 9.46%"},
      {"smiles": "Cc1cccc(OCC(=O)Nc2cccc(C(=O)Nc3ccccc3C(=O)O)c2)c1", "growth rescue (activation)": "inactive: -29.6%"},
      {"smiles": "Cc1cccc(OCCCCCN2CCOCC2)c1C", "growth rescue (activation)": "inactive: 5.03%"},
      {"smiles": "COc1ccccc1N(CC(=O)NCc1ccc(F)cc1)C(=O)CCC(=O)Nc1ccccn1", "growth rescue (activation)": "inactive: 0.543%"},
      {"smiles": "CCNC(=O)CC1C(=O)N(CC)C(=S)N1NC(=O)c1cccnc1", "note": "(configuration not stated)", "growth rescue (activation)": "inactive: 5.9%"},
      {"smiles": "Clc1ccc(CON/C=N/c2ncnc3sccc23)c(Cl)c1", "growth rescue (activation)": "inactive: -3.14%"},
      {"smiles": "Cc1no[n+]([O-])c1COc1ccccc1/C=N/n1nnnc1N", "growth rescue (activation)": "inactive: 15.3%"},
      {"smiles": "C=CC[C@H]1Cc2c(cccc2[N+](=O)[O-])[C@H](CC=C)N1", "growth rescue (activation)": "inactive: -1.03%"},
      {"smiles": "COc1ccc(-n2cnc3sc4c(c3c2=O)CCCC4)cc1", "growth rescue (activation)": "inactive: 25.9%"},
      {"smiles": "CCCCN(CCCC)C(=O)CSc1nnc2n(C)c(=O)c3c4c(sc3n12)CCCC4", "growth rescue (activation)": "inactive: -11.1%"},
      {"smiles": "Cc1ccc(C(=O)N2CCOCC2)cc1S(=O)(=O)N1CCCCC1", "growth rescue (activation)": "inactive: 9.22%"},
      {"smiles": "CCOC(=O)CC(NC(=O)CCc1c(C)nc2nc(C)nn2c1C)c1ccc(OC(C)C)cc1", "note": "(configuration not stated)", "growth rescue (activation)": "inactive: -2.11%"},
      {"smiles": "CSC(=NC#N)N1CCN(C(=NC#N)SC)CC1", "growth rescue (activation)": "inactive: -9.66%"},
      {"smiles": "O=C(O)CN1CCN(Cc2cccc(Cl)c2)C1=O", "growth rescue (activation)": "inactive: 1.59%"},
      {"smiles": "Cc1cccc(-c2cccc(NC(=O)C3CCCN(Cc4cccnc4)C3)c2)c1", "note": "(configuration not stated)", "growth rescue (activation)": "inactive: -7.3%"},
      {"smiles": "COc1ccccc1NCC(=O)c1ccc(Cl)cc1", "growth rescue (activation)": "inactive: -1.36%"},
      {"smiles": "CC1CN(C(=S)SCC(=O)c2ccc(Cl)cc2)CC(C)O1", "note": "(configuration not stated)", "growth rescue (activation)": "inactive: 35.1%"},
      {"smiles": "CC1(C)CC(=O)C(=Cc2cn(-c3ccccc3)nc2-c2ccc(Cl)cc2)C(=O)C1", "growth rescue (activation)": "inactive: -3.02%"},
      {"smiles": "Cc1ccc2nc(/N=C(\\N)NC(=O)NC3CCCCC3)nc(C)c2c1", "growth rescue (activation)": "inactive: 11%"},
      {"smiles": "COc1cc(/C=C2/NC(=O)N(Cc3ccccc3F)C2=O)ccc1Oc1ccc([N+](=O)[O-])cn1", "growth rescue (activation)": "inactive: 10.5%"},
      {"smiles": "COc1cc(Nc2c3c(nc4ccccc24)CCCC3)cc(OC)c1OC", "growth rescue (activation)": "inactive: 3.35%"},
      {"smiles": "Cc1cc(Cl)cc(Cl)c1CNc1c([N+](=O)[O-])c(=O)oc2ccccc12", "growth rescue (activation)": "inactive: -1.05%"},
      {"smiles": "NC(N)=NN=C1CCCCCCCCCCC1", "growth rescue (activation)": "inactive: 7.16%"},
      {"smiles": "CCN(CC(=O)Nc1cc(Cl)ccc1C)C(=O)CC1CCCC1", "growth rescue (activation)": "inactive: 44.3%"},
      {"smiles": "O=C(c1ccc(Cl)c(S(=O)(=O)N2CCc3ccccc32)c1)N1CCN(c2ccccc2O)CC1", "growth rescue (activation)": "inactive: 21.2%"},
      {"smiles": "CCCN(CC1CC1)C(=O)COC(=O)c1ccc2c(c1)C(=O)N(c1ccc(OCC)cc1)C2=O", "growth rescue (activation)": "inactive: 10.8%"},
      {"smiles": "CCC(=O)c1ccc(OCC(=O)NNC(=O)c2cc(C)oc2C)cc1", "growth rescue (activation)": "inactive: -2.71%"},
      {"smiles": "CCc1nc2c(OCCC3CCCCC3)cccn2c1N(C)C(=O)c1ccncc1", "growth rescue (activation)": "inactive: -0.651%"},
      {"smiles": "CCOC(=O)c1sc(NC(=O)C2CC(=O)N(c3ccc(C)cc3)C2)nc1C", "note": "(configuration not stated)", "growth rescue (activation)": "inactive: -4.09%"},
      {"smiles": "CC(C)c1ccc(-c2c(C#N)c(N)nc3c2CCCCC3)cc1", "growth rescue (activation)": "inactive: 12.8%"},
      {"smiles": "CCN(CC)CCNC(=O)c1ccc(NC(=O)c2ccccc2-c2ccc(C(F)(F)F)cc2)cc1", "growth rescue (activation)": "inactive: 1.27%"},
      {"smiles": "CC1(C(=O)NS(=O)(=O)c2ccc(Cl)cc2)CCN1C(=O)C1CCCCC1", "note": "(configuration not stated)", "growth rescue (activation)": "inactive: -2.04%"},
      {"smiles": "CN(/N=C/c1cccc(Br)c1)C1=NS(=O)(=O)c2ccccc21", "growth rescue (activation)": "inactive: 7.97%"},
      {"smiles": "Cc1cc(C)c2nc(NC(=O)c3cc(C)on3)sc2c1", "growth rescue (activation)": "inactive: 29.7%"},
      {"smiles": "COc1ccccc1-c1cc(NC=O)c2ncc(-c3cccc(C(C)=O)c3)n2c1", "growth rescue (activation)": "inactive: 25.6%"},
      {"smiles": "CCCCNS(=O)(=O)c1ccc2nc(SCC(=O)Nc3ccccc3Cl)[nH]c2c1", "growth rescue (activation)": "inactive: -17.4%"},
      {"smiles": "Cc1cc(C)cc(N(CC(=O)NC(C)(C)C)C(=O)CNC(=O)c2cccs2)c1", "growth rescue (activation)": "inactive: 9.92%"}
    ]}
  ]
}
